Assay results: the supplement of paper PMC10126150
Sequences with one replicate were seen in a single cluster, so their values are uncertain.

System: ATP
Test: switch fluorescence ratio, 500 uM ATP over buffer (Cy3 cluster intensity, sum of 5 cycles each) (fold (ratio)); higher = stronger signal-on switching upon ATP binding; sequences stand for … in TCGTCGGCAGCGTCAGATGTGTATAAGAGACAGTTTTTTTTTTTTTTTTTTTTTTTTT…TC
Conditions: aptamer strand: ATP DNA aptamer (quencher-CACCTGGGGGAGTATTGCGGAGGAAGG + anchor), 100 nM annealed; ATP concentration: 500 uM; one replicate
How it was run: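 For every switch-domain sequence, the fluorescence ratio is the mean of per-cluster values, each being summed target-cycle Cy3 intensity over summed buffer-cycle Cy3 intensity. Clusters outside 100-1000 RFU were excluded. On a modified Illumina MiSeq flow-cell, the Cy3-labelled switching-strand clusters were annealed to 100 nM quencher-labelled ATP aptamer, imaged in selection buffer and then after 15 min with 500 uM ATP at 22 °C. Five such cycles were run, with NaOH stripping and re-annealing between them.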
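Also: ATP exposure 15 min at 22 °C before imaging.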

TGTCATAGGT was tested, and the switch fluorescence ratio was 0.993.

GCGTGTTACC was tested, and the switch fluorescence ratio was 1.02.

With GCAAAGGGAG the switch fluorescence ratio was 1.

In the case of GCCATGCGAA, the switch fluorescence ratio is reported as 0.98.

With CCCACCGTCG the switch fluorescence ratio was 1.07.

For ATAACCGGCG, the switch fluorescence ratio was 1.05.

GACCGAGGCC showed a switch fluorescence ratio of 1.02.

GGGAACAAAA gave a switch fluorescence ratio of 0.952.

Sequence CTAGTAGGTG has a switch fluorescence ratio of 1.08.

ATTGTTAACT was tested, and the switch fluorescence ratio was 0.997.

Work on TCCACTACAC yielded a switch fluorescence ratio of 1.43.

Work on ACTTACTGCA yielded a switch fluorescence ratio of 1.3.

Sequence AGCAGGGTTC has a switch fluorescence ratio of 1.02.

In the case of TTCGGATCCC, the switch fluorescence ratio is reported as 1.08.

For TCCTTGTGTT, the switch fluorescence ratio was 1.04.

Sequence AGTGATTAC has a switch fluorescence ratio of 1.06.

CCACGGCAAC gave a switch fluorescence ratio of 6.06.

GCAATAGAAC was tested, and the switch fluorescence ratio was 2.07.

Sequence ATTGTAAGCT has a switch fluorescence ratio of 1.02.

Sequence ATTAACGTCA has a switch fluorescence ratio of 1.09.

Sequence TATTTGTCAG has a switch fluorescence ratio of 0.985.

CTTGGTGATG gave a switch fluorescence ratio of 1.03.

CCCGGAAGCA gave a switch fluorescence ratio of 1.96.

In the case of CGTGATGGCA, the switch fluorescence ratio is reported as 1.04.

With GGTACATCGT the switch fluorescence ratio was 0.957.

Work on GATAACGG yielded a switch fluorescence ratio of 1.

Sequence TGATAAACGA has a switch fluorescence ratio of 1.17.

Sequence AGGCATCTTT has a switch fluorescence ratio of 0.965.

Sequence CCAGAAGTTG has a switch fluorescence ratio of 0.995.

TAAGGAACGA was tested, and the switch fluorescence ratio was 0.992.

Sequence ACGATTGACC has a switch fluorescence ratio of 1.15.

TTCGTTTAGG was tested, and the switch fluorescence ratio was 0.99.

In the case of GATGGCAAG, the switch fluorescence ratio is reported as 1.07.

For TACCATGTTA, the switch fluorescence ratio was 1.02.

Sequence AGACAACACA has a switch fluorescence ratio of 1.15.

TCACCTGGCA gave a switch fluorescence ratio of 1.02.

In the case of ACAGATCAAT, the switch fluorescence ratio is reported as 1.09.

In the case of ATTCAGACAA, the switch fluorescence ratio is reported as 1.02.

AGTTCAATTA was tested, and the switch fluorescence ratio was 0.976.

TGATTCCCGT showed a switch fluorescence ratio of 0.994.

TTGTTTTACG gave a switch fluorescence ratio of 1.03.

With CCCAGAGTGT the switch fluorescence ratio was 4.39.

TGGGTCAAGT gave a switch fluorescence ratio of 0.989.

With ATTCCCGGAA the switch fluorescence ratio was 1.06.

Work on TGTTTTAAT yielded a switch fluorescence ratio of 1.01.

AGCGCCTATC gave a switch fluorescence ratio of 1.

With CCGAAGGTTC the switch fluorescence ratio was 1.3.

TCTATCTCTT gave a switch fluorescence ratio of 0.988.

TTTTGCATAG gave a switch fluorescence ratio of 1.05.

For TACGATGTGA, the switch fluorescence ratio was 0.99.

With TTTTTCTGCA the switch fluorescence ratio was 1.08.

With CCACGTACTG the switch fluorescence ratio was 1.85.

TATGACTGCC was tested, and the switch fluorescence ratio was 1.22.

CCCAGTGGCT gave a switch fluorescence ratio of 1.09.

With TGTCGGACTG the switch fluorescence ratio was 1.01.

With TTTGGGCAA the switch fluorescence ratio was 1.15.

In the case of TATGTGAACG, the switch fluorescence ratio is reported as 1.01.

TTCTTGAAGG showed a switch fluorescence ratio of 0.968.

In the case of TCCTTTTTAC, the switch fluorescence ratio is reported as 1.19.

TAGTGTTAGA was tested, and the switch fluorescence ratio was 1.02.

With TTTTCGCAT the switch fluorescence ratio was 1.28.

For ATAAAATAGC, the switch fluorescence ratio was 0.971.

CTACATGAGA gave a switch fluorescence ratio of 1.02.

AAACTAATT showed a switch fluorescence ratio of 0.987.

With GGGATTGGG the switch fluorescence ratio was 0.978.

With GGTTACGTG the switch fluorescence ratio was 1.05.

With AACTGAGTAC the switch fluorescence ratio was 0.961.

AAGGACCATC showed a switch fluorescence ratio of 1.02.

For AAAAACATT, the switch fluorescence ratio was 1.04.

With GCGTAGGTCA the switch fluorescence ratio was 1.

In the case of TATGCCCTGT, the switch fluorescence ratio is reported as 1.03.

In the case of GTCACTGCTT, the switch fluorescence ratio is reported as 1.09.

For AAACCGGTGC, the switch fluorescence ratio was 1.14.

Sequence AGTTGAGGTT has a switch fluorescence ratio of 0.991.

ACAAGGATTG showed a switch fluorescence ratio of 0.988.

In the case of ATCCCTGGGA, the switch fluorescence ratio is reported as 1.03.

Work on CTCGTTGTG yielded a switch fluorescence ratio of 0.975.

With GCCGTTCGGC the switch fluorescence ratio was 1.01.

With GATGCATGAA the switch fluorescence ratio was 1.

Sequence TCGCAATGAG has a switch fluorescence ratio of 4.73.

In the case of TCTGTCTTCT, the switch fluorescence ratio is reported as 0.99.

With ACCCTA the switch fluorescence ratio was 1.1.

With CTGACCGGAC the switch fluorescence ratio was 2.4.

In the case of ACCGAAAAAG, the switch fluorescence ratio is reported as 1.08.

TTGGTCATT showed a switch fluorescence ratio of 1.04.
